From PubChem BioAssay (NCI)
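All cell lines were grown in 96-well plates and treated with compound for 48 hours. Abbreviation: GI50, concentration required for 50% inhibition of growth. TGI is the concentration that stops growth completely.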

system: NCI-H322M lung; assay: growth of human tumour cells (NCI), 48 h

Point of comparison: CC[C@H]1OC(=O)[C@H](C)[C@@H](O[C@H]2C[C@@](C)(OC)[C@@H](O)[C@H](C)O2)[C@H](C)[C@@H](O[C@@H]2O[C@H](C)C[C@H](N(C)C)[C@H]2O)[C@](C)(OC)C/C(C)=C2/O[C@@]1(C)C=C2C, TGI 3.05 µM. Against it:
- CCCCC1(C(NC(=O)c2ccccc2Cl)c2ccncc2)C(=O)N(c2ccccc2)N(c2ccccc2)C1=O (centres undefined) — higher, > 100 µM
- C=CCN1CCC(c2cc(C(=O)OCC)[nH]c2-c2cc(C)no2)C1=O (centres undefined) — higher, > 100 µM
- CCSC1=N/C(=C\c2ccco2)C(=O)N1 — higher, > 100 µM
- COc1ccc(/C=C/C(=O)c2cc3c(N)c(C(=O)Nc4ccc(OC)cc4)sc3nc2C)cc1 — higher, > 50 µM
- COc1ccc(-c2csc(Nc3cccc(-c4csc(C)n4)c3)n2)cc1 — 2.9-fold higher, 8.7 µM
- CCOC(=O)c1c(NC(=O)c2ccc(Cl)cc2)sc2c(CN(C)C)c(O)ccc12 — 19-fold higher, 58.4 µM
- CS(=O)(=O)Nc1cc(-c2ccc3ncnc(Nc4cccc(Cl)c4)c3c2)cnc1Cl — within 1.5-fold, 2.7 µM
- CCCCCCCCCCCCCCCc1nc(=S)[nH][nH]1 — higher, > 100 µM
- C[C@@H]1CC[C@@H]2[C@@H](C1)O[C@@H]([C@@H](C)OCc1ccccc1)SC2(C)C — 24-fold higher, 74 µM
- O=C(Cc1nc2ccccc2[nH]c1=O)c1c[nH]c2ccccc12 — higher, > 100 µM
- C[C@@H]1CC[C@H]2[C@H](C)C(OC3O[C@@H]4O[C@@]5(C)CC[C@H]6[C@H](C)CC[C@@H]([C@@H]3C)[C@@]46O5)O[C@@H]3O[C@@]4(C)CC[C@@H]1[C@]32O4 (some centres undefined) — higher, > 100 µM
- O=C(NCCN1CCCCC1)c1cccc(I)c1 — higher, > 100 µM
- COc1ccccc1N/C(SCc1ccccc1)=C(/C(Cl)=C(Cl)Cl)[N+](=O)[O-] — higher, > 100 µM
- COc1ccc(/C=N/NS(=O)(=O)c2ccccc2)cc1 — higher, > 100 µM
- COc1cccc(/C=N\NC(=O)C(C)SC(C)C(=O)N/N=C/c2cccc(OC)c2)c1 (centres undefined) — higher, > 60.4 µM
- O=C1Nc2ccc3c(c2/C1=C\c1cc2c(cc1Br)OCO2)OCO3 — within 1.5-fold, 3.21 µM
- CC(Oc1ccc(Cl)cc1Cl)C(=O)NN1C(=O)CC(=O)N(c2ccccc2)C1=S (centres undefined) — higher, > 100 µM
- COc1ccccc1C(=O)N(Cc1ccccc1)c1ccc(Cl)c(C(=O)OC(C)C)c1 — higher, > 100 µM
- CC(=O)Nc1cccc(N2C(=O)/C(=C\c3cccc(Oc4ccccc4)c3)SC2c2ccccc2)c1 (centres undefined) — higher, > 100 µM
- COc1cccc(-c2nc3sccn3c2-c2ccnc(NCCCNS(=O)(=O)c3ccccc3)c2)c1 — higher, > 100 µM
- COc1ccccc1-c1c(C#N)c(N)[nH]c(=S)c1C#N — higher, > 100 µM
- CCOC(=O)C(=CNc1ccc(F)c(F)c1)C(=O)OCC — higher, > 100 µM
- COc1cc2c(c(OC)c1OC)C(=O)NCCC2 — higher, > 100 µM
- O=CNc1ccccc1OCCOc1ccccc1NC=O — higher, > 100 µM
- O=C1Cc2cn[nH]c2-c2ccccc2N1 — higher, > 100 µM
- CC(C)[C@H]1NC(=O)[C@H]2N=C(S[C@H]2C)[C@@H]2CCCN2C(=O)[C@H](Cc2ccccc2)NC(=O)[C@@H]2CSC(=N2)[C@@H](Cc2ccccc2)NC(=O)[C@@H]2CSC1=N2 — higher, > 50 µM
- C/C(C=O)=C/[C@@]1(C)O[C@@H](C)[C@@](C)(O)[C@@H]1O — higher, > 100 µM
- CC(O)[C@H](NC(=O)N[C@@H](CC(N)=O)c1nc(N2CCNCC2)no1)C(=O)O (some centres undefined) — higher, > 100 µM
- C1CCCN(NC2=NCCO2)CC1 — higher, > 100 µM
- C#C[C@]1(O)CC[C@H]2[C@@H]3CC=C4c5nc(N)sc5CC[C@]4(C)[C@H]3CC[C@@]21C — 21-fold higher, 62.6 µM
- CCOc1ccc(NC(=O)C(=O)Nn2c(N)nnc2N)cc1 — higher, > 100 µM
- CC(=O)OCC1OC(n2c3c(cc(C#N)c2=S)CCCC3)C(OC(C)=O)C(OC(C)=O)C1OC(C)=O (centres undefined) — higher, > 100 µM
- CN1CCc2ccccc2C(C(=O)c2ccc3c(c2)OCO3)C1=O (centres undefined) — higher, > 100 µM
- Cc1nc2ccccc2c(=O)n1/N=C(\N=Nc1cc(Cl)ccc1Cl)c1ccccc1 — higher, > 100 µM
- CCc1ccc2c(c1)N(CCO)C1=C(C(=O)OC1)C2c1cc(OC)c(OC)c(OC)c1 (centres undefined) — higher, > 50 µM
- COc1cc(OC)c2c(=O)c3cccc(C)c3n(C)c2c1 — higher, > 100 µM
- O=C1OC([C@H](O)c2cccnc2)c2ccccc21 (some centres undefined) — higher, > 10 µM
- CCOC1Oc2ccc(C)cc2C(=O)/C1=C\Nc1ccc(S(N)(=O)=O)cc1 (centres undefined) — higher, > 50 µM
- OCCN(CO)CO — higher, > 100 µM
- O=C1CSC(c2ccccc2O)N1c1ccc(-n2c(-c3ccccc3)nc3ccccc3c2=O)cc1 (centres undefined) — higher, > 100 µM
- CCOC(=O)CCC(NC(=O)c1ccc(NC(OC)c2nc3cc(C(F)(F)F)ccc3nc2-c2ccccc2)cc1)C(=O)OCC (centres undefined) — 9.4-fold higher, 28.7 µM
- Cn1nnc2c3c(N(CCO)CCO)ccnc3ccc21 — higher, > 100 µM
- CCCc1cc(OC(=O)c2c(O)cc(OC)cc2CCC)cc(O)c1C(=O)O — 18-fold higher, 55.7 µM
- COC(=O)c1c(O)ccc2c1c1cc3ccccc3c(O)c1n2CCc1ccc(OC)c(OC)c1 — higher, > 100 µM
- O=c1[nH]cnc2n[nH]nc12 — higher, > 100 µM
- CCCCOC/N=C(/N)NC#N — higher, > 100 µM
- O=c1cccc(Cl)[nH]1 — higher, > 100 µM
- CCCCCC[C@H]1C(=O)O[C@H](C)[C@H](NC(=O)c2cccc(NC=O)c2OC)C(=O)O[C@@H](C)[C@@H]1OC(=O)CCC (tested in a mixture with another compound) — 23-fold higher, 69.1 µM
- COCC(C(=O)OC1C/C=C/C=C/C(=O)OC(C(C)C(O)C(C)CCC(OC(=O)C(C)N(C)C)C(C)C(OC(C)=O)C(C)/C=C/N(C)C=O)C/C=C/C(OC)CC(C)C/C=C(\C)C(OC)CCC(C)C(O)C1C)N(C)C (centres undefined) — not separable, > 1 µM
- O=C1NC2(CCNCC2)Oc2ccccc21 — higher, > 100 µM
- O=[N+]1[C@H](c2ccccc2)[C@H](c2ccccc2)N1[O-] — 10-fold higher, 31.4 µM
- CCCNCCCCC(NC(C)=O)C(=O)NCc1ccccc1 (centres undefined) — higher, > 100 µM
- CCCCCCCCC(O)c1ccc(/C=C\C(O)CCCC(=O)O)s1 (centres undefined) — higher, > 100 µM
- O=C(O)c1ccccc1NCn1c(=S)sc2ccccc21 — higher, > 100 µM
- CCCCCCCCCCCCCCCC[n+]1ccccc1 — within 1.5-fold, 4.55 µM
- COc1ccc(C)cc1NC(=S)C#N — higher, > 100 µM
- Cc1ccc(OC(=O)N2C/C(=C\c3ccccc3)C(=O)/C(=C/c3ccccc3)C2)cc1 — higher, > 100 µM
- CSC1=Nc2c(c(C)c(-c3ccccc3)n2COC(CO)CO)C2=NC(=O)CC(C)N12 (centres undefined) — higher, > 100 µM
- O=[N+]([O-])/C=C/c1ccc(Cl)cc1[N+](=O)[O-] — 9.3-fold higher, 28.3 µM
- Cc1cc(NN=C(c2ccc(O)cc2)c2ccc(O)cc2)c([N+](=O)[O-])cc1[N+](=O)[O-] — 8.4-fold higher, 25.7 µM
- COC(=O)/C=C(\C)CCC1SC1(C)C (centres undefined) — higher, > 100 µM
- Nc1ccccc1C(=O)N=Nc1c(O)[nH]c2ccccc12 — higher, > 100 µM
- COc1ccc(-c2nc(Nc3ccccc3)sc2Cc2sc(Nc3ccccc3)nc2-c2ccc(OC)cc2)cc1 — higher, > 100 µM
- O=C(Cn1c2ccc(Br)cc2c2nc3ccccc3nc21)Nc1ccccc1 — higher, > 100 µM
- C=CC(=O)Nc1cc2c(Nc3ccc(F)c(Cl)c3)ncnc2cc1C#CC(C)(C)N1CCN(C)CC1 — within 1.5-fold, 4.48 µM
- O=c1[nH][nH]c(=O)c2c1ccc1oc3ccccc3c12 — higher, > 100 µM
- O=C1c2c(Br)sc(Br)c2[C@@H](O)[C@H]1O — 10-fold higher, 30.9 µM
- NC1=NCN(C2OC(CO)C(O)C2O)C(=O)N1 (centres undefined) — 550-fold higher, 1690 µM

Point of comparison: O=[N+]([O-])/C=C/c1ccc(Cl)cc1[N+](=O)[O-], GI50 13.9 µM. Against it:
- COc1ccc(/C=C/C(=O)c2cc3c(N)c(C(=O)Nc4ccc(OC)cc4)sc3nc2C)cc1 — 60-fold lower, 0.23 µM
- COc1ccc(-c2csc(Nc3cccc(-c4csc(C)n4)c3)n2)cc1 — 2800-fold lower, 0.005 µM
- CCOC(=O)c1c(NC(=O)c2ccc(Cl)cc2)sc2c(CN(C)C)c(O)ccc12 — within 1.5-fold, 9.74 µM
- CS(=O)(=O)Nc1cc(-c2ccc3ncnc(Nc4cccc(Cl)c4)c3c2)cnc1Cl — 50-fold lower, 0.278 µM
- O=C1Nc2ccc3c(c2/C1=C\c1cc2c(cc1Br)OCO2)OCO3 — 16-fold lower, 0.846 µM
- COc1cccc(-c2nc3sccn3c2-c2ccnc(NCCCNS(=O)(=O)c3ccccc3)c2)c1 — 3.1-fold lower, 4.43 µM
- CC(O)[C@H](NC(=O)N[C@@H](CC(N)=O)c1nc(N2CCNCC2)no1)C(=O)O (some centres undefined) — higher, > 100 µM
- C#C[C@]1(O)CC[C@H]2[C@@H]3CC=C4c5nc(N)sc5CC[C@]4(C)[C@H]3CC[C@@]21C — within 1.5-fold, 10 µM
- CCc1ccc2c(c1)N(CCO)C1=C(C(=O)OC1)C2c1cc(OC)c(OC)c(OC)c1 (centres undefined) — 38-fold lower, 0.367 µM
- CCOC1Oc2ccc(C)cc2C(=O)/C1=C\Nc1ccc(S(N)(=O)=O)cc1 (centres undefined) — within 1.5-fold, 14.2 µM
- CCCCCC[C@H]1C(=O)O[C@H](C)[C@H](NC(=O)c2cccc(NC=O)c2OC)C(=O)O[C@@H](C)[C@@H]1OC(=O)CCC (tested in a mixture with another compound) — within 1.5-fold, 19.4 µM
- COCC(C(=O)OC1C/C=C/C=C/C(=O)OC(C(C)C(O)C(C)CCC(OC(=O)C(C)N(C)C)C(C)C(OC(C)=O)C(C)/C=C/N(C)C=O)C/C=C/C(OC)CC(C)C/C=C(\C)C(OC)CCC(C)C(O)C1C)N(C)C (centres undefined) — lower, < 0.0001 µM
- CC[C@H]1OC(=O)[C@H](C)[C@@H](O[C@H]2C[C@@](C)(OC)[C@@H](O)[C@H](C)O2)[C@H](C)[C@@H](O[C@@H]2O[C@H](C)C[C@H](N(C)C)[C@H]2O)[C@](C)(OC)C/C(C)=C2/O[C@@]1(C)C=C2C — 8.3-fold lower, 1.68 µM
- CCCCCCCCCCCCCCCC[n+]1ccccc1 — 6.8-fold lower, 2.03 µM
- CSC1=Nc2c(c(C)c(-c3ccccc3)n2COC(CO)CO)C2=NC(=O)CC(C)N12 (centres undefined) — higher, > 100 µM
- Cc1cc(NN=C(c2ccc(O)cc2)c2ccc(O)cc2)c([N+](=O)[O-])cc1[N+](=O)[O-] — 3-fold lower, 4.71 µM
- C=CC(=O)Nc1cc2c(Nc3ccc(F)c(Cl)c3)ncnc2cc1C#CC(C)(C)N1CCN(C)CC1 — 60-fold lower, 0.23 µM

N#[N+]c1ccc(Nc2ccccc2)cc1 showed a GI50 of over 50 µg/mL.

N#[N+]c1ccc(Nc2ccccc2)cc1 was tested, and the TGI was over 50 µg/mL.
